# Test results taken from the supplement of paper PMC11417369.
# Some of the results follow.
# System: PfAP2-HC AP2 domain (GST-tagged)
# Assay: gcPBM binding intensity (ln(normalized median fluorescence intensity)); higher = stronger DNA binding
# Procedure, shortened: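 Using an Agilent 4 × 180k array, primer-extended double-stranded 36-bp intergenic genomic probes and negative controls were exposed for 1 h to GST-fused P. falciparum DNA-binding domains expressed in E. coli. Binding was carried out in 1× PBS with 1% milk, 0.2 mg/ml BSA, 0.5% salmon testes DNA and 0.03% Triton X-100, and protein was detected with Alexa488 anti-GST antibody and a 488 nm scan. Binding intensity is the highest Masliner-normalised natural-log median intensity across replicate spots of either probe orientation.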
row,Sequence,gcPBM binding intensity (ln)
1,ATTTTTTTACTGTAACCATATTTTTCCCTTTTATTC [CACACA_negctrl_site1143],9.75
2,ATAATATATATATATAGTACATATATATAATATTCT [XGTACX_site2445],9.6
3,TTTTTTTTTTTTTTTTGTACGTATCAAAAAATTTGT [XGTACX_site1023],9.18
4,AAAAATAAATTTAGTTGTACTTTATTATTTTAAATA [XGTACX_site3067],9.4
5,AATCAATAAATAAAAACATGCATATATATATATATA [TGCATGCA_site438],9.66
6,AAAAAAAAAAAAATACGTACATACATACCTACATAT [XGTACX_site233],9.7
7,TATATATATATGTGTACACAATTTATCTGTATTTAT [CACACA_site5945],10
8,AAGAAAAACTTTACGTGTACCAAACATCCTGCCAAC [XGTACX_site598],9.91
9,ATAGACAGCGCACAAACACACAAACACCCACCCACA [CACACA_site8043],10.1
10,AGTGATACTAATTTTTGTACGCATAAAAGAATATTC [XGTACX_site6055],9.6
11,TATATTGATGATGATAGTACGTATGATTAGAAAAAA [XGTACX_site8989],9.72
12,TCATATTATAATGTGAGTACATATAATAAATAAGTT [XGTACX_site2470],9.73
13,ATGTTTGTCTATAGCTGTACCTATTTATAAAACGTA [XGTACX_site7157],9.58
14,TTAATATGATATATATATATATATATATATATATAT [CACACA_negctrl_site683],9.36
15,GTAAAAATTTTAAATACATGCAAGCGATTAATATGA [TGCATGCA_site80],9.61
16,ATATTTCTGTCAAGCACACATAATATTAAAATATGT [CACACA_site4330],9.78
17,ATTTAGAAAAATAAAACACACATATAGATGTAAATA [CACACA_site7853],9.87
18,AGGAGACTTAAAAAAAGTACAAAAAAAAAAAAAAGC [XGTACX_site1576],9.84
19,TATACATATATAAATGCATGTTGATATTAATAGTTA [TGCATGCA_site639],9.64

row,Sequence,gcPBM binding intensity (ln)
1,ACAGAAAAAAAACACACACACATAATATACATACAT [CACACA_site1932],10.5
2,TATTTTTTTTTCTTTTTATATATAATAATCTTCATT [GTGCAC_negctrl_site80],9.59
3,GTATATATGTATATATGTACATATATACATTTTGTT [XGTACX_site7320],9.79
4,CGTTAAAGGGAATGTATACACACGTTTCTCTATGTT [CACACA_site1198],9.83
5,TTAAATAATATTAAATGTACATATTATTATGATATA [XGTACX_site6189],9.53
6,TATATATTTAACAATCGTACATATTTACAAATATAA [XGTACX_site2131],9.2
7,TTATAACAACTGGAATGATTAACAATAAATATTAAA [CACACA_negctrl_site1723],9.46
8,CCTGTAAATAAATATAAATACATATTTCTAATATAT [GTGCAC_negctrl_site21],9.56
9,AAAAATAAAATAAAGAAGGAAAATAAAAAAATAAGG [CACACA_negctrl_site1811],9.77
10,AGGAGGTCAGTTCACAGTACCCAGGAAATCTACGGA [XGTACX_site2552],9.47
11,AAACATAAGAGACACACACACATATATAAATAAATA [CACACA_site7674],10.5
12,AATTTCATAAATATAACTGAGAATAAATAAACAAAG [GTGCAC_negctrl_site146],9.59
13,ACATATATTTAAAAATGTACTTACATATATTTTTTA [XGTACX_site6050],9.51
14,GAAGTATTTATTTATGCATGCAAATATACAAAAAAA [TGCATGCA_site975],9.59
15,TTTTATACATATTTTACACACTAAAATATACATATA [CACACA_site324],9.73
16,TTATGTTGTAAATGCACACATACATAAACTCAGTTT [CACACA_site5639],9.77
17,ATAAAATAAATATTTTGTTATTTATTTAATCTAATA [XGTACX_negctrl_site404],9.35
18,TAAATATTTTTAGATGCATGCAATAATTACCCAAAG [TGCATGCA_site636],9.69
19,TTTTTTTTTTCTGAAAGTACTAATTTCCTGGAGGAA [XGTACX_site759],9.13

row,Sequence,gcPBM binding intensity (ln)
1,TTATTATTATTACTAGTGCATTAATTATATATGTAA,9.48
2,TTTCAAAAAAATAATGTGCACATTAGAAAATAAATA [GTGCAC_site9416],9.78
3,ACCTCATAATATTTAACACACAAAATTAAATGTATG [CACACA_site6898],9.75
4,ATAATGTAAAAGTAAACACACACATATATATATACA [CACACA_site8793],10.7
5,GTCTTAAAAATTAAAACACACGTTCACTTTCATATT [CACACA_site5803],9.91
6,TATATATATATATAATGTACATATATATAATATACA [XGTACX_site1552],9.59
7,ATTTCTACTAAAAATACACACGATGATACAACGAAG [CACACA_site1755],9.68
8,AATTAATAACAAAATAAACACACATATATAAATACA [CACACA_site8456],9.99
9,TTTTAATAAATATACACACACAAAAAAAAAAAAAAA [CACACA_site3971],9.68
10,TTTCACTTTTTCCAAAGTACATATATAAAAATTAAT [XGTACX_site6947],9.2
11,ATATAAAAAAAAAAAAGTACACATAAACAAATGCAT [XGTACX_site4241],9.8
12,AGATTATAAAATTCTACACACATATATACATATATA [CACACA_site3485],9.85
13,GACCAATTCAAATATGCACACAAATTTGAAAACGAT [CACACA_site9202],10
14,AATATATAGAAACACACACACAAAAAAAAAAAAAAA [CACACA_site1326],10.1
15,AATAAAAAGACATTCACACATATATATTATTTATAT [CACACA_site5936],9.81
16,TTAAAATATAATATTCGTACTTATTCAAAAGAAAAA [XGTACX_site2122],9.06
17,ATATGTAGAAGTAATGCACACATATGTATATATATA [CACACA_site8796],10.1
18,CATAATACAGATAACACACACAATTATACATAAAAT [CACACA_site5742],10.2
